# Experimental data published in the supplement of paper PMC11417369.
# ± gives the standard deviation of the averaged measurements. The list shows a part of the results.
# System: PfAP2-G AP2 domain (GST-tagged)
# Assay: gcPBM binding intensity (ln(normalized median fluorescence intensity)); higher = stronger DNA binding
# Outline: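 DNA-binding domains from P. falciparum, fused to GST and produced in E. coli, were put on an Agilent 4 × 180k double-stranded probe array for 1 h in 1× PBS holding 1% milk, 0.2 mg/ml BSA, 0.5% salmon testes DNA and 0.03% Triton X-100. Probes were primer-extended, 36 bp long and drawn from intergenic genomic regions, with negative controls included. After Alexa488 anti-GST antibody detection and a 488 nm scan, binding intensity was set as the highest Masliner-normalised natural-log median intensity across replicate spots of either probe orientation.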
row,Sequence,gcPBM binding intensity (ln)
1,GAATAATATGGACATACACACATATACATACATATA [CACACA_site2114],10.9 ± 0.51
2,TGAATACAAATTTACGCATGTAATTTCCAGAGGGAG [TGCATGCA_site769],10 ± 0.18
3,AAAATAAAAGAAAAAAGTACAAAATCAGATTAATTA [XGTACX_site8413],11.1 ± 0.63
4,TACTAATATGATATATAAATATTGTTATATAATAAT [XGTACX_negctrl_site227],9.63 ± 0.13
5,TATAAAATATAATTAGCACACATATATAAAATATAT [CACACA_site9355],9.855 ± 0.049
6,AATATATGTAATATATGTACTTAATTATATTTTAAT [XGTACX_site4382],11 ± 0.79
7,TATATTTATTTATTCTGTACTGAAGACAGTTATGTA [XGTACX_site8857],10.8 ± 0.58
8,ATAAATATATATATAGTGCATATAAGCCACCTTCAA [GTGCAC_site9628],10.03 ± 0.042
9,TATATAATACAACATGCACACATATATATGTGAATC [CACACA_site8794],10.01 ± 0.064
10,GTATATTTTTAAAGGTGTACTTTTTTTTTTTTTTTT [XGTACX_site721],11.8 ± 1.1
11,ATATAAAACTATAATACACACATAAAATATATTATA [CACACA_site6588],9.89 ± 0.028
12,CGTAATAAAAACAAATGTACATGACCTGGACAGGTT [XGTACX_site6560],11.3 ± 0.43
13,AAACAAAATAAATATGAACACACACCGTTATGCCTT [CACACA_site8347],9.87 ± 0.17
14,TATTTGTGGATTTTTACACACATTAATATATATATA [CACACA_site3375],9.92 ± 0.14
15,AGGAAAATTATGAATGGTACAGAATATATTAGGAGA [XGTACX_site6282],10.6 ± 0.23
16,AAGGAACTATAATATACACACATAAGTGTACTTATA [CACACA_site7816],11.5 ± 1
17,ATATATGCATATATTTGTACACATTTTTTTACATAA [XGTACX_site4624],11.4 ± 0.71
18,AAAAAAACGTAAAAATGTACTTTTTGTATATAACCT [XGTACX_site7950],11.1 ± 0.57
19,AATAAGTTATTATTTTGTACACATAAATAATACGTT [XGTACX_site814],11.3 ± 0.93
20,GCACTAAAAAAATAAACACACAGATTTATATAATAT [CACACA_site1381],9.87 ± 0.028
21,TATTCGTGCAATAGTAGTACACTTAAAAATTATTCA [XGTACX_site269],11.6 ± 1.1
22,AAAATACACAGACACACACACATATAAATAAATATT [CACACA_site7871],10.2 ± 0.25

row,Sequence,gcPBM binding intensity (ln)
1,ATTCGTTATAAAATATGTACATAAATATATATATAT [XGTACX_site2819],11.3 ± 0.67
2,TAAAGCGACATTTGGAAAATATATATCCTAGCATTT [CACACA_negctrl_site327],9.82 ± 0.12
3,TTATAAAATAAACTTACACACATGAAATATTATATT [CACACA_site1945],9.865 ± 0.021
4,ACATAGATGCATATCACACATAATAATATTGTCGTA [CACACA_site4819],9.835 ± 0.021
5,ATAATAAGACGATAAGGTACACAAAATGTTAATATA [XGTACX_site6984],11.1 ± 0.63
6,GTAGACTGAAACCACACACACATATATATATATATT [CACACA_site605],10.2 ± 0.14
7,TAATATTTCGCACTGTGTACTGAAATATTTATATCG [XGTACX_site516],11.2 ± 0.87
8,ATATTAATATATAGAAGTACTCACATGTTAATATAA [XGTACX_site7323],11.4 ± 0.64
9,TAACTATCATGTATTACACACAATATTTATTATATA [CACACA_site2701],9.99 ± 0.099
10,TTAAATAAATAAATAACACACATATAAAAATAACGC [CACACA_site3266],10.05 ± 0.092
11,AATAATAATAAAAATAAACACACATATATATGTATA [CACACA_site8928],9.58 ± 0.23
12,ATTTCTTTTGTTATAGTGCATAATATTTATGTACGT,10.7 ± 0.15
13,AAAGAAAGAAAGAAAAGTACTTAAACTTTTAAAAAT [XGTACX_site8531],11.2 ± 0.61
14,TATTCAAATTTCCACATACACACCTTGTAGATATAT [CACACA_site281],9.975 ± 0.064
15,AAGACAAATTTTACATGTACAAATATATTACATATA [XGTACX_site7060],10.8 ± 0.35
16,AAGAAAAAAAGCAACACACGTACCAACACAATTATG [CACACA_site3133],11 ± 0.49
17,ATTTTTTTCCACTAGTGTACAAATTTTACATTGTGT [XGTACX_site5023],11.3 ± 0.81
18,ACTAATGTAAAAGTTTGTACATATATTGAGAATTAT [XGTACX_site7439],11 ± 0.57
19,CTATAATATTAGTGCACACACAAAAATGTACTAAAC [CACACA_site6442],11.1 ± 0.64
20,AAGAAAAAAACAAAAAAAAAAAAAAAAATTCTTATT [TGCATGCA_negctrl_site504],9.26 ± 0.23
21,AAAAGCACCGTTCGTTGTACACTGAAACACTTTTGT [XGTACX_site199],11.1 ± 0.63
22,GTTATAAATTTTTTTTTTTTTTTTTTTTTTTTTTTT [CACACA_negctrl_site848],11 ± 0.43

row,Sequence,gcPBM binding intensity (ln)
1,TAAAAAAAAACAGAAACACACATTATTCATATAGAT [CACACA_site7052],9.68 ± 0.4
2,ATAAAATAAAAGGAATGTACTTTTTTTATTGTAATT [XGTACX_site4372],11.4 ± 0.88
3,AACAAATTGAAACAATAATTGGAAAAAAAAAAAAAA [CACACA_negctrl_site1145],9.62 ± 0.4
4,AACAAATACGGACACACACACACACTAGAAAAAAAA [CACACA_site4442],11.4 ± 0.86
5,ATATATATATATATATGTACTCATATTTTATTATTT [XGTACX_site898],11.4 ± 0.94
6,AAATGTATATATGTATGTACATATATATATATATAT [XGTACX_site5778],11.1 ± 0.61
7,AGTTTCTATTTAGTGTGTACTTAAGAAAAATATCTC [XGTACX_site82],11.3 ± 0.79
8,ATAAACTGAGTGGTTACACACAAAACCAATAATTTT [CACACA_site3478],10.29 ± 0.092
9,TCGCAAATAAATTAATGTACACATATATATATATAT [XGTACX_site5145],11.3 ± 0.86
10,TATTGATAATTTTATATATACATACATAAATAAATA [CACACA_negctrl_site1687],9.79 ± 0.22
11,TTTTCAATTTTTTATGAACACACAAAAAAAAAAAAA [CACACA_site8808],10.1 ± 0.55
12,AATATATATAAAAAAGTGCATTAGGATAACCATATA [GTGCAC_site9590],10.2 ± 0.13
13,TATATTTTATATTAGTGTACAAATTTCATTTTTCAT [XGTACX_site2204],11 ± 0.5
14,TATATATATATATTCACACATATAGTATTGTATTTA [CACACA_site5147],9.96 ± 0.39
15,TAATAATAGAAACACACACACATTTTTAATAATACA [CACACA_site1216],10.1 ± 0.21
16,ATATATTTATATTTGTGTACATATTTATTATATTTA [XGTACX_site404],11.5 ± 0.67
17,AATATGAATATCTATACACACACATATATATACACA [CACACA_site8459],9.865 ± 0.007
18,ATTTGTGACCACACAAATAAATAAATAAAAAAAAAA [TGCATGCA_negctrl_site328],11.2 ± 1
19,TGTTAAAAGAAAAAAAGTACAAAAAATTATACATTT [XGTACX_site467],11.2 ± 0.75
20,AAGAAGAAAAACCATTGTACGAACTAACATATATAA [XGTACX_site3226],11 ± 0.49
21,GGTATACATAATACTTGTACTAGGCAACAATAAGAT [XGTACX_site1437],10.8 ± 0.52
22,AAAAAAAATTTCTCAAGTACACAATTTTTTTTTGTT [XGTACX_site5874],11.4 ± 0.92

row,Sequence,gcPBM binding intensity (ln)
1,TTTTTTTAAATATATAAGATAAATTTATAAATAAAT [XGTACX_negctrl_site282],9.72 ± 0.3
2,ATATCAAACTAGAATGTGCGCATGCATTCAAGTTTT,9.84
3,TTATGTTCATTATATGCACACATATATATAAATGTA [CACACA_site8947],9.92 ± 0.17
4,GATTTTATAATTTCTACACACATATAAGAATATTCA [CACACA_site2802],10.1 ± 0.23
5,TTATAATAAAAAAATTCCTAAGTCCGTATATATTAT [CACACA_negctrl_site1698],10.4 ± 0.45
6,TTTTATTTTTATAACAGTACATAAGTAATTGTTCAA [XGTACX_site7574],10.6 ± 0.47
7,TTTTATCATCACATTTGTCAAAAAAAAAAAAAAAAA [CACACA_negctrl_site1296],9.85 ± 0.64
8,ATATTCTTTATATGCATACACACCTAATATAGGGAC [CACACA_site1533],10.2 ± 0.16
9,AAATTTGGATGACTCAATAAATTATAATATATATAT [CACACA_negctrl_site298],9.85 ± 0.085
10,ATTATTACATATAATGCATGTGCATATATTTTTATA [TGCATGCA_site701],10 ± 0.11
11,TTCAATTTTTTAAAGCGTACATATAAAAGTTATATG [XGTACX_site731],11.4 ± 0.86
12,AATCATTTGTTATAAGTCTAAAATTATTAGAATATT [XGTACX_negctrl_site151],9.65 ± 0.26
13,CCCAATAATTAAACAACACACATATTTATAGGTAAT [CACACA_site7445],9.92 ± 0.057
14,TATATGACAAGATAAAGTACAAATTTGTATATATAT [XGTACX_site3027],11 ± 0.61
15,ATATATTTATATATTACACACAATATTGTAGACATA [CACACA_site4669],10.1 ± 0.16
16,AAAAATAAAAAAAGCACACACATATAAATAAATATA [CACACA_site6968],9.955 ± 0.049
17,TAATTTTTCTTTTATTAACACACATATAAATAAATA [CACACA_site8935],10 ± 0.26
18,ATATATATACTGTGTACACAAATATATATTATATAT [CACACA_site6104],11.6 ± 0.84
19,AACCATTTTAAATATGCACACAGATGCACTAACACA [CACACA_site8565],10.3 ± 0.2
20,GAATTATATAATTAAAGTACATTGTTTATATAATCA [XGTACX_site7246],11 ± 0.68
21,TAAAATAAAAAGTTTACACACATATATAATTTTAAT [CACACA_site662],9.82 ± 0.042
22,AACATAAAAAAAATATGTACATATATAATATATATA [XGTACX_site3764],11.2 ± 0.78
